Data from PubChem BioAssay AID360 (National Center for Advancing Translational Sciences (NCATS), 2006).
In all, about 48,000 compounds went through this assay and about 550 (1.1%) were called active. Inconclusive results (about 4%) are left out. No stated cut-off is given here; in the data, active means potency below about 15 µM; inconclusive means mostly about 16 µM to 33 µM; inactive means weaker than that. The list shows a part of the results.

Biological target: Lysosomal acid glucosylceramidase (Homo sapiens) (UniProt P04062)
Test: Glucocerebrosidase;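 further: the screen sought inhibitors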
Conditions: purified enzyme, resorufin glucoside fluorescence (screen aimed at inhibitors), 20 min
How it was run: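 Normal human glucocerebrosidase (0.2 nM final) was assayed with resorufin β-D-glucopyranoside (30 uM final) in 50mM citric acid/KH2PO4, 10mM sodium taurocholate, 0.01% tween-20, pH 5.9. Compounds were titrated; fluorescence (Ex 548, Em 600) read after 20 min at RT.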
Potency means the concentration at half of the fitted maximal effect.

Chain of UniProt P04062 (P04062 whole entry, looked up): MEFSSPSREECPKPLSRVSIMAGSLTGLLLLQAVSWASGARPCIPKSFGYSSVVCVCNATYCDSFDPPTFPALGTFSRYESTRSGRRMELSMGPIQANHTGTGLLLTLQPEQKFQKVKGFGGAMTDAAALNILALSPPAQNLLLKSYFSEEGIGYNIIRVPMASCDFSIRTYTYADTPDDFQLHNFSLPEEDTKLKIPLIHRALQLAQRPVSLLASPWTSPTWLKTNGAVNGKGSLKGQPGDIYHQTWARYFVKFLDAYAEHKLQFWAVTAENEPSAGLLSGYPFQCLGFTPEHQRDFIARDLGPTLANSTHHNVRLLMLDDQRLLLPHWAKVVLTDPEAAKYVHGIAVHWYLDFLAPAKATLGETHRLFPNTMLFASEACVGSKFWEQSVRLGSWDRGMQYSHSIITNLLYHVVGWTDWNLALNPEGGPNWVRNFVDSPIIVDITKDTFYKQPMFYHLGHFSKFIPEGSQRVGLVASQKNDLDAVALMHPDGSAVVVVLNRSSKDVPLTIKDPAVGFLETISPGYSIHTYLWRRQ

Potency, active:
O=C(CN(C(=O)CNS(=O)(=O)c1ccccc1)c1ccc2c(c1)OCCO2)NC1CCCCC1 12 µM

Potency, inactive:
COc1ccc2[nH]c(=O)c(CN(C(=O)NC3CCCCC3)C3CCCCC3)cc2c1, NC(=O)CSc1nnc(-c2ccoc2)o1 > 76.9 µM, CCOC(=O)CSc1nnc(CNC(=O)c2cccs2)n1-c1cc(OC)ccc1OC > 76.9 µM, O=C1CN(C(=O)CCCc2c[nH]c3ccccc23)c2ccccc2N1 > 76.9 µM, CCSCc1nnc(SCC(=O)Nc2nc3ccccc3s2)n1C > 76.9 µM, COC(=O)CCC(=O)COc1ccc(OC)cc1C#N > 76.9 µM, O=C(c1ccc(=O)[nH]c1)N(Cc1ccco1)C1(C(=O)NC2CCCC2)CCCCC1 > 76.9 µM, CCC(Sc1nc(=O)cc(N)n1-c1ccccc1)C(=O)Nc1ccc(Cl)cn1 (stereo not given) > 76.9 µM, CCOC(=O)c1ccccc1NC(=O)CSc1ncc(C(=O)OCC)c(N)n1 > 76.9 µM, COc1ccc(OC)c(NC(=O)C2CCN(c3ncccn3)CC2)c1 > 76.9 µM, O=C(CCN1CCOCC1)Nc1cccc(Br)c1, c1ccc(-c2nc3ccccc3c3nncn23)cc1 > 76.9 µM, CC(C)NCC(O)COc1c(F)cc(Br)cc1F (stereo not given) > 76.9 µM, O=C(NCc1ccccc1)c1cccc(OCC(=O)N2CCN(C(=O)c3ccco3)CC2)c1 > 76.9 µM, O=S(=O)(c1cnc[nH]1)N1CCCCCC1 > 76.9 µM, COC(=O)CSc1nc2ccccc2n1CC(=O)N(C(C)C)C(C)C > 76.9 µM, CCOC(=O)C1CCN(C(=O)c2cccc(NC(=O)C(CC)CC)c2)CC1 > 76.9 µM, CC(C(=O)N1CCN(c2ccccc2)CC1)N1C(=O)C2CC=CCC2C1=O (stereo not given) > 76.9 µM, Cc1cccc(NC(=O)Cn2cnc3sc(C)c(S(=O)(=O)N4CCC(C)CC4)c3c2=O)n1 > 76.9 µM, O=C(O)Cn1c(SCCOc2ccccc2)nc2ccccc21 > 76.9 µM, COc1ccc(CCNC(=O)CS(=O)Cc2nc(-c3cccs3)oc2C)cc1OC (stereo not given) > 76.9 µM, COc1cccc(-c2nnc(SCC(=O)Nc3ccc(S(N)(=O)=O)cc3)n2C)c1 > 76.9 µM, COc1cccc(Cn2c(-c3cccs3)noc2=O)c1 > 76.9 µM, COc1ccccc1OCc1ccc(C(=O)OCC2CCCO2)o1 (stereo not given) > 76.9 µM, CC(=O)N1C(=O)C(=C2C=C(C)OC(C)=C2)c2ccccc21 > 76.9 µM, Cc1ccc(-n2c(SCC(=O)OC(C)C)nnc2-c2ccccn2)cc1 > 76.9 µM, Cc1nc2cc3nc(C)sc3cc2s1 > 76.9 µM, COc1cc(NS(=O)(=O)c2ccc(F)cc2)c(C(=O)O)cc1OC > 76.9 µM, O=S(=O)(c1ccc(NC2CCCCC2)cc1)N1CCOCC1 > 76.9 µM, CCOC(=O)c1c(-c2cccs2)csc1NC(=O)COC(=O)c1c(C)noc1C > 76.9 µM, CCn1nnc(-c2ccccc2NC(=O)C(F)(F)F)n1 > 76.9 µM, COc1ccccc1Nc1nc(N)nc(-c2cc3ccccc3o2)n1 > 76.9 µM, CC1CCCC(C)N1C(=O)COc1ccc(-c2nnco2)cc1 (stereo not given) > 76.9 µM, Cc1nn2cc(-c3ccc(N)cc3)nc2s1 > 76.9 µM, O=C(CSc1nnc(NC(=O)C2CCC2)s1)NC1CC1 > 76.9 µM, Cc1ccc2[nH]c(=O)c(CN(CCN3CCOCC3)C(=O)Nc3ccccc3F)cc2c1 > 76.9 µM, CC1=C(C(N)=O)C(c2ccccn2)n2nc(SCc3ccccc3)nc2N1 (stereo not given) > 76.9 µM, CS(=O)(=O)N(CC(=O)N1CCCCC1)C1CCCCC1 > 76.9 µM, Cc1ccccc1NS(=O)(=O)c1ccc(NC(=O)c2ccco2)cc1 > 76.9 µM, Cc1cc(C)nc(N2CCCC(C(=O)Nc3nc4ccc(S(C)(=O)=O)cc4s3)C2)n1 (stereo not given) > 76.9 µM, COc1cc(C(=O)OCC(=O)N2CCCC2)cc(OC)c1OC > 76.9 µM, COc1ccc(N2CCCn3c2nc2c3c(=O)n(Cc3ccccc3F)c(=O)n2C)cc1 > 76.9 µM, NC(=O)c1ccc(-n2nnnc2SCc2ccccc2)cc1 > 76.9 µM, O=C(CSc1ncnc2c1oc1ccccc12)N1CCc2ccccc2C1 > 76.9 µM
